Test results published in PubChem BioAssay AID651820 (National Center for Advancing Translational Sciences (NCATS), 2012).
Among all 340,000 compounds or so, about 12,000 (3.5%) were called active. Inconclusive means that the source gave no clear call. Such entries were picked first, then a sample of the others. Calls follow the shape of the dose curve; as a rule, active = well fitted inhibition curve with a large enough effect; inconclusive = small, poorly fitted or top-dose-only effect, or another doubt; inactive = no such curve, though single readings can be large or run the other way. No potency is given beside an inconclusive call; the fits are too rough.

test: qHTS Assay for Inhibitors of Hepatitis C Virus (HCV); conditions: Huh7.5.1 HCVcc-Cre (HCVcc is cell-culture hepatitis C virus) infection, luciferase reporter, 44 h; activity change, negative = inhibition: at 41.8 µM (top of the series) unless noted
In short: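 Cells (1,000/well) were plated 4 h before compound, then infected with HCVcc-Cre virus (~0.5 moi). After 44 h further culture, infection was read as luciferase luminescence following a 15 min substrate incubation at room temperature.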
% is scaled to controls: 0 for no effect and ±100 for the full control effect; potency is read from the fitted curve at half-maximal effect; tags tell the direction and shape of the fitted curve.

| Structure (SMILES) | Potency | activity change, negative = inhibition |
| --- | --- | --- |
| O=C(Nc1ccc(Oc2cccnc2)cc1)C1CCN(Cc2ccc(F)cc2)CC1 | inconclusive [inhibitor, single point] | – |
| Cc1ccc(NC(=O)c2oc3ccc(S(=O)(=O)N4CCOCC4)cc3c2C)c(C)c1 | – | inactive: -2.97% |
| CCC(CC)C(=O)Nc1cccc(C(=O)Nc2ccc3c(c2)OCO3)c1 | active: 7.94 µM | – |
| CCOC(=O)CC1CCCCN1C(=O)c1ccc2oc(CCc3ccccc3)nc2c1 (stereo unspecified) | active: 10 µM | – |
| Cc1cc(C)cc(NC(=O)COC(=O)Cn2cnc3c2c(=O)n(C)c(=O)n3C)c1 | – | inactive: -4.33% |
| COc1ccc(-n2c(-c3ccccc3)c[n+]3c2CCC3)cc1 | active: 10 µM | – |
| COc1ccc(C(=O)OCC(=O)Nc2sccc2C(N)=O)cc1[N+](=O)[O-] | inconclusive [inhibitor, partial curve] | – |
| O=C(CCn1nc(-c2ccccc2)c2ccccc2c1=O)N1CCN(c2ccccc2)CC1 | inconclusive [inhibitor, single point] | – |
| Cc1ccc(S(=O)(=O)NC(CC(C)C)C(=O)N2CCN(C/C=C/c3ccccc3)CC2)cc1 (stereo unspecified) | active: 11.2 µM | – |
| Cc1ccc(NS(=O)(=O)c2ccc(C(C)C)cc2)cc1S(=O)(=O)N1CCOCC1 | inconclusive [inhibitor, single point] | – |
| COc1ccc(Cl)cc1C(=O)Nc1ccccc1N1CCCCC1 | active: 11.2 µM | – |
| Cc1cc(S(=O)(=O)N(Cc2ccc(C(C)C)cc2)CC2CCCO2)ccc1-n1cnnn1 (stereo unspecified) | inconclusive [inhibitor, single point] | – |
| O=c1c(C=NCc2ccccc2)c(NCc2ccccc2)nc2ccccn12 | inconclusive [inhibitor, partial curve] | – |
| Cc1ccc(NC(=O)CSc2nnc(C3CC3)n2CC2CCCO2)cc1C (stereo unspecified) | inconclusive [inhibitor, single point] | – |
| CN(CC(=O)Nc1c(Cl)cccc1Cl)C(=O)c1ccc(-n2cncn2)c([N+](=O)[O-])c1 | – | inactive: 2.45% |
| CCCCc1ccc(N2C(=NC(=O)C3CCCO3)SC3CS(=O)(=O)CC32)cc1 (stereo unspecified) | – | inactive: 29.9% |
| COc1ccc(C(=O)CSc2nnc(Cn3cnc4ccccc43)o2)cc1 | active: 2.24 µM | – |
| Cn1cccc1/C=C(/C#N)c1ccc(F)cc1 | inconclusive [inhibitor, single point] | – |
| Cc1ccc2oc(-c3ccco3)cc(=O)c2c1 | inconclusive [inhibitor, single point] | – |
| Fc1ccc(-c2csc(-c3cccnc3)n2)cc1F | inconclusive [inhibitor, single point] | – |
| CC(C)c1ccc(/C=N/NC(=O)C(=O)NCCCN2CCOCC2)cc1 | inconclusive [inhibitor, partial curve] | – |
| CC(C)NC(=O)Nc1ccc2c(c1)C(=O)N([C@H](C)CO)C[C@H](C)[C@@H](CN(C)C(=O)NC1CCCCC1)O2 | inconclusive [inhibitor, partial curve, poor fit] | – |
| Cc1cc(NC(=O)CCCS(=O)(=O)c2nc(-c3cccs3)cc(C(F)(F)F)n2)no1 | active: 11.2 µM | – |
| O=C(CN1CCN(C(c2ccccc2)c2ccccc2)CC1)N1CCOCC1 | inconclusive [inhibitor, full curve] | – |

| Structure (SMILES) | Potency | activity change, negative = inhibition |
| --- | --- | --- |
| O=C(Nc1ccc2c(c1)OCO2)c1cc(-c2cccnc2)nc2ccccc12 | inconclusive [inhibitor, partial curve] | – |
| Cc1cccc(C)c1NC(=O)CSc1nc(C2CC2)nc2ccccc12 | – | inactive: -6.96% |
| Nc1ccccc1N=Cc1ccc(-c2cccc(Cl)c2)o1 | active: 10 µM | – |
| COc1ccc(S(=O)(=O)N2CCOCC2)cc1NC(=O)CN1CCC(Cc2ccccc2)CC1 | active: 10 µM | – |
| CC1=CC(C)(C)Nc2ccc(OC(=O)C(Cc3ccccc3)N3C(=O)C4CCCCC4C3=O)cc21 (stereo unspecified) | inconclusive [inhibitor, single point] | – |
| Nc1c([N+](=O)[O-])cc(F)c(N2CCNCC2)c1Br | inconclusive [inhibitor, partial curve] | – |
| CCC(=O)Nc1ccc(-c2cc(-c3ccccc3)nc(-c3ccc(NC(=O)CC)cc3)n2)cc1 | inconclusive [inhibitor, full curve] | – |
| Cc1ccccc1-c1nc(CS(=O)(=O)CC(=O)NC2CCCCC2C)c(C)o1 (stereo unspecified) | inconclusive [inhibitor, single point] | – |
| Cc1ccc(OCc2cc(C(=O)NC3CCc4ccccc43)no2)cn1 (stereo unspecified) | inconclusive [inhibitor, partial curve] | – |
| COc1cc(CNCCN(C)C)ccc1OCc1c(F)cccc1Cl | inconclusive [inhibitor, partial curve] | – |
| CC(C)CNC(=O)c1cc2nc3c(c(C(F)(F)F)n2n1)CCc1ccccc1-3 | – | inactive: 3.93% |
| O=C(Nc1ccccc1N1CCCC1)c1cccc(-c2cc3ccccc3oc2=O)c1 | inconclusive [inhibitor, single point] | – |
| COc1ccc2sc(N(CCCN(C)C)C(=O)c3ccc(S(=O)(=O)N(C)Cc4ccccc4)cc3)nc2c1 | active: 10 µM | – |
| COc1ccccc1Nc1nc(Cl)nc(Nc2ccccc2OC)n1 | active: 12.6 µM | – |
| COc1ccc(CNC(=O)c2c(-c3cc(Cl)c(OC)c(Cl)c3)noc2C)cc1 | inconclusive [inhibitor, partial curve] | – |
| Cc1cccc(/C=N/N(CCO)C2=NS(=O)(=O)c3ccccc32)c1 | inconclusive [inhibitor, single point] | – |
| O=C(/C=C/NNC(=O)c1cccc(Br)c1)c1cccc(Br)c1 | inconclusive [inhibitor, single point] | – |
| CCN(C(=O)CSc1ncccc1C(=O)OC(C)C)c1cccc(C)c1 | – | inactive: -17.9% |
| Cc1ccc(-c2nnn(CC(=O)N(CCCO)C(C(=O)NC3CCCC3)c3ccc(Cl)cc3)n2)o1 (stereo unspecified) | – | inactive: -5.18% |
| CC(=O)CSc1nnc(-c2ccc3c(c2)OCO3)o1 | – | inactive: -3.68% |
| CN(C)/C=C1\N=C(c2ccc(Cl)cc2Cl)OC1=O | inconclusive [inhibitor, single point] | – |
| Cc1ccc(NC(=S)N(CCN2CCCCC2)Cc2ccco2)cc1C | inconclusive [inhibitor, single point] | – |
| CCOc1ccc2[nH]c(C(=O)N/N=C/c3cc(OC)c(OC)c(OC)c3)cc2c1 | inconclusive [inhibitor, partial curve, poor fit] | – |
| CCC[n+]1c2ccccc2cc2ccccc21 | inconclusive [inhibitor, partial curve] | – |

| Structure (SMILES) | Potency | activity change, negative = inhibition |
| --- | --- | --- |
| Cc1occc1-c1nnc(SCC(=O)NCCc2ccccc2)o1 | – | inactive: 2.5% |
| CS(=O)c1ccccc1O (stereo unspecified) | – | inactive: 17% |
| Cc1cccc(NC(=O)c2cc3cc([N+](=O)[O-])ccc3s2)n1 | – | inactive: -23% |
| CCc1ccc(S(=O)(=O)Nc2cc(SCC(=O)O)c(O)c3ccccc23)cc1 | inconclusive [inhibitor, single point] | – |
| CSc1ncc(CN2CCCC(C(=O)c3ccc(C(C)(C)C)cc3)C2)cn1 (stereo unspecified) | inconclusive [inhibitor, single point] | – |
| CC(=O)Nc1ccc(NC(=O)CSc2nccn2Cc2ccccc2)cc1 | inconclusive [inhibitor, single point] | – |
| CCN(CC)CCOC(=O)c1ccc(N/C=C(/C#N)c2nc(-c3ccc(OC)cc3)cs2)cc1 | inconclusive [inhibitor, single point] | – |
| CCN(C(=O)COC(=O)c1c2c(nc3ccccc13)/C(=C/c1ccccc1)CC(C)C2)C1CCS(=O)(=O)C1 (stereo unspecified) | inconclusive [inhibitor, partial curve] | – |
| COc1ccc(Cl)cc1C(=O)Nc1ccc(NC(=O)C(C)C)cc1 | active: 3.98 µM | – |
| CC1CCN(C(=O)c2[nH]cnc2C(=O)N[C@@H](C)c2ccccc2)CC1 | inconclusive [inhibitor, single point] | – |
| COc1ccc(C(=O)Nc2ccc(NC(=O)c3cc(OC)c(OC)c(OC)c3)cn2)cc1 | – | inactive: -21.1% |
| COC(=O)c1cc(Sc2cccc(Cl)c2Cl)ccn1 | inconclusive [inhibitor, single point] | – |
| CCN1CCCC1CNC(=O)Cn1nc(C)n2c(cc3cc(C)ccc32)c1=O (stereo unspecified) | inconclusive [inhibitor, single point] | – |
| COc1cc(SC)ccc1C(=O)NCCc1c[nH]c2ccccc12 | inconclusive [inhibitor, single point] | – |
| CCC(CC)C(=O)Nc1nnc(SCC(=O)NC2CCCCC2)s1 | inconclusive [inhibitor, single point] | – |
| O=C(NCc1ccco1)c1sc2cc(Cl)ccc2c1Cl | inconclusive [inhibitor, partial curve] | – |
| CCCCCCc1c(C)nc(-n2[nH]c(C)c(CCO)c2=O)[nH]c1=O | – | inactive: -20.6% |
| O=C(CN1C(=O)C2C3C=CC(C3)C2C1=O)NCc1ccco1 (stereo unspecified) | – | inactive: -3.34% |
| Cc1ccc(OCCCNCCO)c(Br)c1 | inconclusive [inhibitor, single point] | – |
| CCc1cccc(CC)c1NC(=S)NCc1nc2ccccc2[nH]1 | – | inactive: 23.3% |
| CC(C)OCCCNC(=O)C1CCN(S(=O)(=O)c2ccc3nc4c(c(C(=O)O)c3c2)CCCCC4)CC1 | – | inactive: 13.7% |
| CC(C)(C)c1ccc(S(=O)(=O)Nc2ccccn2)cc1 | inconclusive [inhibitor, single point] | – |
| CCOC(=O)N1CCN(CC(=O)Nc2c(C(=O)OC)[nH]c3ccc(Cl)cc23)CC1 | inconclusive [inhibitor, partial curve] | – |
